Values joined by “and” are separate entries in the source; they are usually repeats but may differ in a detail not shown here. Equal values may be shown once. Read-outs that look alike come from different tables or passages of the source.
What was measured:
[1] = biological target: PF-7802-labelled proteins in ARPE-19 cells (Homo sapiens, UniProt Q5TEC6); conditions: protein HIST2H3PS2 Histone H3 (Q5TEC6); one column per replicate
[2] = biological target: PF-7802-labelled proteins in ARPE-19 cells (Homo sapiens, UniProt Q14980); conditions: protein NUMA1 Nuclear mitotic apparatus protein 1 (Q14980); replicates in separate columns
[3] = biological target: T1, PF-7802-labelled proteins in ARPE-19 cells (Homo sapiens, UniProt P63104); conditions: for Median SILAC Ratio (Heavy/Light): protein YWHAZ 14-3-3 protein zeta/delta (P63104)
T1 sequence (P63104 1-245): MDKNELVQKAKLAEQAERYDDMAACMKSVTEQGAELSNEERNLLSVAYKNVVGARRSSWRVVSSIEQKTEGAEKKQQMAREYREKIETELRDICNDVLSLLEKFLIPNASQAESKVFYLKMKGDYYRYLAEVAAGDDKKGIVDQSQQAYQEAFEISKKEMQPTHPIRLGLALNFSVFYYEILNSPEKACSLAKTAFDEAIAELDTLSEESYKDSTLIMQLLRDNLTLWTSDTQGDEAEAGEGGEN

[4] = biological target: PF-7802-labelled proteins in ARPE-19 cells (Homo sapiens, UniProt P62318); conditions: SNRPD3 Small nuclear ribonucleoprotein Sm D3 (P62318)
[5] = biological target: PF-7802-labelled proteins in ARPE-19 cells (Homo sapiens, UniProt Q7KZF4); conditions: SND1 Staphylococcal nuclease domain-containing protein 1 (Q7KZF4)
[6] = biological target: T2, PF-7802-labelled proteins in ARPE-19 cells (Homo sapiens, UniProt P62258); conditions: for Median SILAC Ratio (Heavy/Light): protein YWHAE 14-3-3 protein epsilon (P62258)
T2 sequence (P62258 1-255): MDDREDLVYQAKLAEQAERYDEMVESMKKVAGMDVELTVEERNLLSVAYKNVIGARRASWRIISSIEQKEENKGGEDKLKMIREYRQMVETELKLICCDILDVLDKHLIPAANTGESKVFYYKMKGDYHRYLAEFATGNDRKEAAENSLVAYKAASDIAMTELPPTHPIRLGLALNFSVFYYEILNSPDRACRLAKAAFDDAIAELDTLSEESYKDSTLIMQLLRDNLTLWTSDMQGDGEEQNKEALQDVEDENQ

[7] = biological target: PF-7802-labelled proteins in ARPE-19 cells (Homo sapiens, UniProt Q99439); conditions: protein CNN2 Calponin-2 (Q99439)
[8] = biological target: PF-7802-labelled proteins in ARPE-19 cells (Homo sapiens, UniProt Q9ULV4); conditions: for Median SILAC Ratio (Heavy/Light): protein CORO1C Coronin-1C (Q9ULV4)
[9] = biological target: PF-7802-labelled proteins in ARPE-19 cells (Homo sapiens, UniProt Q16181); conditions: SEPT7 Septin-7 (Q16181)
[10] = biological target: T3, PF-7802-labelled proteins in ARPE-19 cells (Homo sapiens, UniProt O75083); conditions: protein WDR1 WD repeat-containing protein 1 (O75083)
T3 sequence (O75083 1-606): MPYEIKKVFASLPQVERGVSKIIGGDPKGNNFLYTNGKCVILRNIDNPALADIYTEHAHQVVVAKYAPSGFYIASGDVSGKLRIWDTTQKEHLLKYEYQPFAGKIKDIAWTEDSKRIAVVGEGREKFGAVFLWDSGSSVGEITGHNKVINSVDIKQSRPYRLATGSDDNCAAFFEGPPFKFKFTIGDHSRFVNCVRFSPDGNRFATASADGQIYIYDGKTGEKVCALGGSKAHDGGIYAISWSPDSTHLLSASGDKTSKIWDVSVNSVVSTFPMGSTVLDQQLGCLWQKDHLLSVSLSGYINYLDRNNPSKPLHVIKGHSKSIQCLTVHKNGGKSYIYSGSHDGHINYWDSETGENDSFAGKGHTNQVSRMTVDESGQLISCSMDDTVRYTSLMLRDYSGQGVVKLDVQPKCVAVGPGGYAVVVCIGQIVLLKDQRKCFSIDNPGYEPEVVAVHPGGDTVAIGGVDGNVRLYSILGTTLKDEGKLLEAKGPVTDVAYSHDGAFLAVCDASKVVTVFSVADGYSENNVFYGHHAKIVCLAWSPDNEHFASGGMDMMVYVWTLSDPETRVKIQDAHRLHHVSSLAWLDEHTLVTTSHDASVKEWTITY

[11] = biological target: PF-7802-labelled proteins in ARPE-19 cells (Homo sapiens, UniProt Q16850); conditions: protein CYP51A1 Lanosterol 14-alpha demethylase (Q16850)
[12] = biological target: PF-7802-labelled proteins in ARPE-19 cells (Homo sapiens, UniProt Q9H9B4); conditions: SFXN1 Sideroflexin-1 (Q9H9B4)
[13] = biological target: PF-7802-labelled proteins in ARPE-19 cells (Homo sapiens, UniProt P21953); conditions: protein BCKDHB 2-oxoisovalerate dehydrogenase subunit beta, mitochondrial (P21953)
[14] = biological target: PF-7802-labelled proteins in ARPE-19 cells (Homo sapiens, UniProt P54886); conditions: protein ALDH18A1 Delta-1-pyrroline-5-carboxylate synthase (P54886)
[15] = biological target: PF-7802-labelled proteins in ARPE-19 cells (Homo sapiens, UniProt P49411); conditions: for Median SILAC Ratio (Heavy/Light): TUFM Elongation factor Tu, mitochondrial (P49411)
[16] = biological target: PF-7802-labelled proteins in ARPE-19 cells (Homo sapiens, UniProt O14745)
[17] = biological target: PF-7802-labelled proteins in ARPE-19 cells (Homo sapiens, UniProt P34897); conditions: SHMT2 Serine hydroxymethyltransferase, mitochondrial (P34897)
[18] = biological target: PF-7802-labelled proteins in ARPE-19 cells (Homo sapiens, UniProt P13987); conditions: protein CD59 CD59 glycoprotein (P13987)

Chain of UniProt Q9ULV4 (Q9ULV4 whole entry): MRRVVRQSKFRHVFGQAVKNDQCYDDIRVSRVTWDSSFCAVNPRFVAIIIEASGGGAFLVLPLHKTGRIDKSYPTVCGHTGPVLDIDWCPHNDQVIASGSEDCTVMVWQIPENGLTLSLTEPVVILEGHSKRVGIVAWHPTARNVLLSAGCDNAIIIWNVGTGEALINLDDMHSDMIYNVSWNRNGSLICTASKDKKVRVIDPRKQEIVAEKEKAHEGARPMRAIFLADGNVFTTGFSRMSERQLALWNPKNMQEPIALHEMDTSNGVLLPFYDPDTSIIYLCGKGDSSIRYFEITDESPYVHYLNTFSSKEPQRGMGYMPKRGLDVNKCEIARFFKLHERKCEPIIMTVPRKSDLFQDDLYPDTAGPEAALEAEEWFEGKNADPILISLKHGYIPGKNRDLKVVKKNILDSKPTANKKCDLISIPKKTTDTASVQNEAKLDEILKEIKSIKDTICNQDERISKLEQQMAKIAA
Chain of UniProt O14745 (O14745 whole entry): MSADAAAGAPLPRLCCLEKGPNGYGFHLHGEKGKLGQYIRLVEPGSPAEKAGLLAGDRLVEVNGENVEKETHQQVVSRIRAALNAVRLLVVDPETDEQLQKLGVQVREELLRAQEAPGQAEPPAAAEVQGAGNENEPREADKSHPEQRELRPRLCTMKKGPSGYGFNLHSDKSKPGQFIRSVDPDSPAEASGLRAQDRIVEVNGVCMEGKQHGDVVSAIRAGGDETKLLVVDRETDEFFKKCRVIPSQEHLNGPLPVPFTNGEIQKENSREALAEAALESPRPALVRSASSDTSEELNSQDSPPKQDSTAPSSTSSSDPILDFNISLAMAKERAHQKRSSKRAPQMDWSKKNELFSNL
Chain of UniProt Q16181 (Q16181 whole entry): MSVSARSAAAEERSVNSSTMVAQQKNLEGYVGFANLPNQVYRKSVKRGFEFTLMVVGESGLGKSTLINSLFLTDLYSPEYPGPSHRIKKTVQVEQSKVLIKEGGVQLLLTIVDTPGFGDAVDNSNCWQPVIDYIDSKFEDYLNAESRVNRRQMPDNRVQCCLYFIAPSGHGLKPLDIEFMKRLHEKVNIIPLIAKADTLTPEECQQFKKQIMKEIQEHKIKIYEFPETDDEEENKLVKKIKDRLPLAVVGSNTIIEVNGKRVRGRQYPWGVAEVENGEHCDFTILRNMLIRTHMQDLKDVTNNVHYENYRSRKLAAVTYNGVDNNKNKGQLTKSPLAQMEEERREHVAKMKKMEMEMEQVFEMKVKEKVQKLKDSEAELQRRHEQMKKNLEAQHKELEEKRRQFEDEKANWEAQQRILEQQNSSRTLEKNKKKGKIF
Chain of UniProt Q14980 (Q14980 whole entry): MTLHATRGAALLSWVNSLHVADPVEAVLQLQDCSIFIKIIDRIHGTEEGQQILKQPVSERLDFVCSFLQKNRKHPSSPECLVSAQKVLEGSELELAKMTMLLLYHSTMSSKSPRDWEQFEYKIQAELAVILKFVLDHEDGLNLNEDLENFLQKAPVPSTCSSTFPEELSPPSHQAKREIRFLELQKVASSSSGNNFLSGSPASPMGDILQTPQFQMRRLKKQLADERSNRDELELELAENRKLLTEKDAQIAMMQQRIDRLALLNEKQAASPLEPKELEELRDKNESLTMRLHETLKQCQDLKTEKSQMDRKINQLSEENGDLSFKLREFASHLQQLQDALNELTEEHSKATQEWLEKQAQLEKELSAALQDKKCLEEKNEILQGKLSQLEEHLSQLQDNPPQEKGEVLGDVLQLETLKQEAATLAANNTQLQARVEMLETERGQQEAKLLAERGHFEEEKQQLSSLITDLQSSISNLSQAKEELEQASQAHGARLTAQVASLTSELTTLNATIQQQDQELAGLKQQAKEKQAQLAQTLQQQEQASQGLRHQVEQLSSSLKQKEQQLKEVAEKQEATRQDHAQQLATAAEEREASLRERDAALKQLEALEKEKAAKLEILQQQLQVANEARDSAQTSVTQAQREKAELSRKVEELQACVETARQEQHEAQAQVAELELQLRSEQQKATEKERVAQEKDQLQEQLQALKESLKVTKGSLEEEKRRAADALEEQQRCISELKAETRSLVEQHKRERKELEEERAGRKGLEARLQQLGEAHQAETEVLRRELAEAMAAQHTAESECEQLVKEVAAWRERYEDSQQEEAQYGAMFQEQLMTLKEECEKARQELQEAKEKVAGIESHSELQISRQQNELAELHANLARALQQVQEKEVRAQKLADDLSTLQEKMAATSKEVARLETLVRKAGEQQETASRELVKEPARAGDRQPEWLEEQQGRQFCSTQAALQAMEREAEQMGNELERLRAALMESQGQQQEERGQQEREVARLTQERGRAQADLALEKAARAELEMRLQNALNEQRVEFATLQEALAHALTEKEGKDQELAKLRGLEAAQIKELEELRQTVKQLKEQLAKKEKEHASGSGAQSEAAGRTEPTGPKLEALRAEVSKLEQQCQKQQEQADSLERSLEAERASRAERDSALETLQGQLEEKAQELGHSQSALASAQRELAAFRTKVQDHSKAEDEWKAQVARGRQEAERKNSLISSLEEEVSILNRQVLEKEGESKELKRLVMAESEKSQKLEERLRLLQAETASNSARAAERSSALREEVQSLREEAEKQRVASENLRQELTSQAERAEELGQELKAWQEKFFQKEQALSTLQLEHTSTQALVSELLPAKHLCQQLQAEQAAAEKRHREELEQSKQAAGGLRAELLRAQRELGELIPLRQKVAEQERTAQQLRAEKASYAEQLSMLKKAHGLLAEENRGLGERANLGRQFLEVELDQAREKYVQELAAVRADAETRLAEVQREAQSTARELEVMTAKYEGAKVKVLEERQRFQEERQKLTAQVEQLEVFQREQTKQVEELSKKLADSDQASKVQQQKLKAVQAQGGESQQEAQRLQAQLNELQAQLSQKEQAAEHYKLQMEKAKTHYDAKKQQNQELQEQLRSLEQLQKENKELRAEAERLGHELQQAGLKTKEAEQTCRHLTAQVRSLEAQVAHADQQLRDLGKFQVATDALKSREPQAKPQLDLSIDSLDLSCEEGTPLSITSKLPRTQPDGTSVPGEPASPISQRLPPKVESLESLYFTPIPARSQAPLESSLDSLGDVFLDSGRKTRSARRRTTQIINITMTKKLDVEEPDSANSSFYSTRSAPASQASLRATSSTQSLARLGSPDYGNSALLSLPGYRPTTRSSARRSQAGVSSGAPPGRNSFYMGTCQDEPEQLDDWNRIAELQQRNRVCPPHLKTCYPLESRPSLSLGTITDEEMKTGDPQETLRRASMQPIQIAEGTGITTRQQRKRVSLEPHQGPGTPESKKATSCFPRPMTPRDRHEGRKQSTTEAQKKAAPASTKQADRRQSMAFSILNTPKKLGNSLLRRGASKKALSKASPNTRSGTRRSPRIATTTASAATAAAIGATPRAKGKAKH
Chain of UniProt Q99439 (Q99439 whole entry): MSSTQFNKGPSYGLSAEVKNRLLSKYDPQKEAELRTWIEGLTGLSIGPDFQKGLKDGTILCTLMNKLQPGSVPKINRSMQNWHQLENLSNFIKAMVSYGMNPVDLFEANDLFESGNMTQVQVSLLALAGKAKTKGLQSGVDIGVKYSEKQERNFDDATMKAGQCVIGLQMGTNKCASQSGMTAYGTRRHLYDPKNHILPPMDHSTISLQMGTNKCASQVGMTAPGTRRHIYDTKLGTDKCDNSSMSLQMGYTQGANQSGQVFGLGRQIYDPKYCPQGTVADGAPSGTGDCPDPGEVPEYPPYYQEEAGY
Chain of UniProt Q9H9B4 (Q9H9B4 whole entry): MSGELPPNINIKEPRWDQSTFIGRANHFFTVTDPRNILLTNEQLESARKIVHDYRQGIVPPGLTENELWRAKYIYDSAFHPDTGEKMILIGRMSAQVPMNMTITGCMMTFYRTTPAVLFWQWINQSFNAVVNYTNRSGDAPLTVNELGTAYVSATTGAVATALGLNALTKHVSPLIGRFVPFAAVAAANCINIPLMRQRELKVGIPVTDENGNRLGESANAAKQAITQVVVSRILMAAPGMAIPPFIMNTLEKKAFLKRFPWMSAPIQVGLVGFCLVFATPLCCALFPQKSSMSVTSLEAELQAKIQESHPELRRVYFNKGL
Chain of UniProt P62318 (P62318 whole entry, the tested form may be a part): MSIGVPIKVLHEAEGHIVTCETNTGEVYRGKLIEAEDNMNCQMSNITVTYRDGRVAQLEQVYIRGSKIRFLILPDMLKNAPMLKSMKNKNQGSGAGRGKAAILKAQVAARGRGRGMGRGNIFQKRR
Chain of UniProt Q7KZF4 (Q7KZF4 whole entry, the tested form may be a part): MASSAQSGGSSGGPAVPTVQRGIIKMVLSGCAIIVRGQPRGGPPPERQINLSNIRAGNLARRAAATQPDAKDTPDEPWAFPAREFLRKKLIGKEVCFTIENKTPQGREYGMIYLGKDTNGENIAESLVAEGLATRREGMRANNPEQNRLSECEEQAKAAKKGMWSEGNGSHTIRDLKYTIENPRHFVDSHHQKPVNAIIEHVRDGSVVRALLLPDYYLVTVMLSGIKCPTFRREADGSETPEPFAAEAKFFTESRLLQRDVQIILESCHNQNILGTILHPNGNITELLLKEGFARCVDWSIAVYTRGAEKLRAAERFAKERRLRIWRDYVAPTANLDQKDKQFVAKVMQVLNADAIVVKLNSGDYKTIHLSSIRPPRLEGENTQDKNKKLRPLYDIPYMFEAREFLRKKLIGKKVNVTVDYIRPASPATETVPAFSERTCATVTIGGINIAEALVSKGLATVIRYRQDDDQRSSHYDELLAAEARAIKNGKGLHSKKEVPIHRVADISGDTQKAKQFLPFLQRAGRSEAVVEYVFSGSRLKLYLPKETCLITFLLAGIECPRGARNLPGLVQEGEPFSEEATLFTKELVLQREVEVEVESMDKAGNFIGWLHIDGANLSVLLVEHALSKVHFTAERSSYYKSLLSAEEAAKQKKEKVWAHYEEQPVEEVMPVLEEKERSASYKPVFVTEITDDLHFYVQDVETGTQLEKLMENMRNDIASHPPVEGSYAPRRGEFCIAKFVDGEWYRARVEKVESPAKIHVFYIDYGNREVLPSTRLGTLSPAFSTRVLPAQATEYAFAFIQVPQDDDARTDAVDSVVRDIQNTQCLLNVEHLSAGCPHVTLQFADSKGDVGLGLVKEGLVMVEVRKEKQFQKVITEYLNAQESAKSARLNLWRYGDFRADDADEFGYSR

Structure (SMILES)	Median SILAC Ratio (Heavy/Light) [1]	Median SILAC Ratio (Heavy/Light) [2]	Median SILAC Ratio (Heavy/Light) ([3]; replicate R1)	Median SILAC Ratio (Heavy/Light) [4]	Median SILAC Ratio (Heavy/Light) [5]	Median SILAC Ratio (Heavy/Light) [7]	Median SILAC Ratio (Heavy/Light) [8]	Median SILAC Ratio (Heavy/Light) [9]	Median SILAC Ratio (Heavy/Light) ([10]; replicate R1)	Median SILAC Ratio (Heavy/Light) [11]	Median SILAC Ratio (Heavy/Light) [12]	Median SILAC Ratio (Heavy/Light) [13]	Median SILAC Ratio (Heavy/Light) [14]	Median SILAC Ratio (Heavy/Light) [15]	Median SILAC Ratio (Heavy/Light) [17]	further results
CNC1CCN(C(=O)C[C@@H](Cc2ccccc2)C(=O)N[C@@H](CSC)C(=O)N[C@@H](CC2CCCCC2)[C@@H](O)C(=O)OC(C)C)CC1 [CP-108671, reference compound]	1.079	1.229	1.941	1.034	1.181	1.321	1.415	1.343	1	0.7395	2.029	0.6186	1.676	1.206	1.0983	SILAC ratio (DMSO/CP-108671) ([3]; P63104 YWHAZ 14-3-3 protein zeta/delta): 0.52; SILAC ratio (DMSO/CP-108671) ([6]; P62258 YWHAE 14-3-3 protein epsilon): 0.50; Median SILAC Ratio (Heavy/Light) ([6]; replicate R1): 2.0134; SILAC ratio (DMSO/CP-108671) ([8]; Q9ULV4 CORO1C Coronin-1C): 0.71; SILAC ratio (DMSO/CP-108671) ([15]; P49411 TUFM Elongation factor Tu, mitochondrial): 0.83; Median SILAC Ratio (Heavy/Light) ([16]; SLC9A3R1 Na(+)/H(+) exchange regulatory cofactor NHE-RF1 (O14745)): 1.105
Cc1cc([C@H]2C[C@H]3[C@@H](C)SC(N)=N[C@@]3(c3ccc(F)cc3F)CO2)on1 [PF-9283]	1.319	1.356	1.807	0.9988	1.115	0.4558	1.398 and 0.857	1.557	0.8039	2.762	2.994	1.097	1.64	1.411	1.197	Median SILAC Ratio (Heavy/Light) ([3]; replicate R3): 1.992; Median SILAC Ratio (Heavy/Light) ([3]; replicate R4): 2.624; Median SILAC Ratio (Heavy/Light) [18]: 0.853; Median SILAC Ratio (Heavy/Light) ([6]; replicate R3): 1.225; Median SILAC Ratio (Heavy/Light) ([10]; replicate R3): 1.4326; Median SILAC Ratio (Heavy/Light) [16]: 1.07 and 1.227

— PMC5062570 (Nature Communications, 2016)
